These are yes or no findings as the source states them, for the method shown. Some results given as binding are weak or reduced against the parent protein; the word gives no strength. Sequences can lack the tags named with a protein. One block for each binder: values may come before it.
Experiments:
[1] = target: T1, icr1-151-344, C-terminal fragment of ICR1, two-hybrid fusion (Arabidopsis) (UniProt Q8LE98); experiment: two-hybrid; Gal4 Gateway vectors pDEST22 (prey) and pDEST32 (bait), PJ69-4a; decimal dilutions spotted on -LT and -LTH with 1 mM 3-AT, 21°C
T1 sequence: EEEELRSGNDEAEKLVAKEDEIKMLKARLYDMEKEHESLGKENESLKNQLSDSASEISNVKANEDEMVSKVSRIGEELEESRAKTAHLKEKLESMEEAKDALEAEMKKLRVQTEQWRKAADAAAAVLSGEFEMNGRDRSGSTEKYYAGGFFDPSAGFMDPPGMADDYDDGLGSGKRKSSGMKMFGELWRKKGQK

[2] = target: T2, ICR1W338A, two-hybrid fusion (Arabidopsis) (UniProt Q8LE98); experiment: as above
T2 sequence: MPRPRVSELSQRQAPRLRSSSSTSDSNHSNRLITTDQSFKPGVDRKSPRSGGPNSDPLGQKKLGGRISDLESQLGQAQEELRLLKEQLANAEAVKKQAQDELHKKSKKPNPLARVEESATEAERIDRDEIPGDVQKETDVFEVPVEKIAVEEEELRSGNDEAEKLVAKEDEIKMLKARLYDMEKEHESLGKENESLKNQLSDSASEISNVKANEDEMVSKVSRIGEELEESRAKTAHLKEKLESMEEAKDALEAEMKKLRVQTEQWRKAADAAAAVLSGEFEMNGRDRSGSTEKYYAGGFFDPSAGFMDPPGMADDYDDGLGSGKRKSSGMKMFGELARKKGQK

[3] = target: T3, icr1W266Q, two-hybrid fusion (Arabidopsis) (UniProt Q8LE98); experiment: as above
T3 sequence: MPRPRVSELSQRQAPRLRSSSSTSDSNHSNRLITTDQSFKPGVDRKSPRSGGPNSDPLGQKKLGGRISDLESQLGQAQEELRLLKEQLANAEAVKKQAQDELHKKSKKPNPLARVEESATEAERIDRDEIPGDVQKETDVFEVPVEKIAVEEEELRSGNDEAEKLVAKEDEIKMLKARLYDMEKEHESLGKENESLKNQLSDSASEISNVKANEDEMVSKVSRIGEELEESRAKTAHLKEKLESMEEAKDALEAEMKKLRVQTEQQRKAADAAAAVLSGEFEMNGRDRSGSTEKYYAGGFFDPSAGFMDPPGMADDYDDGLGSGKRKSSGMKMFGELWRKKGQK

[4] = target: T4, icr1-301-344, the 44 C-terminal residues of ICR1, two-hybrid fusion (Arabidopsis) (UniProt Q8LE98); experiment: as above
T4 sequence: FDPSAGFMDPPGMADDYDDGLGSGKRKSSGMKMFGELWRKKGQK

[5] = target: T5, ICR1 W338Q, two-hybrid fusion (Arabidopsis) (UniProt Q8LE98); experiment: as above
T5 sequence: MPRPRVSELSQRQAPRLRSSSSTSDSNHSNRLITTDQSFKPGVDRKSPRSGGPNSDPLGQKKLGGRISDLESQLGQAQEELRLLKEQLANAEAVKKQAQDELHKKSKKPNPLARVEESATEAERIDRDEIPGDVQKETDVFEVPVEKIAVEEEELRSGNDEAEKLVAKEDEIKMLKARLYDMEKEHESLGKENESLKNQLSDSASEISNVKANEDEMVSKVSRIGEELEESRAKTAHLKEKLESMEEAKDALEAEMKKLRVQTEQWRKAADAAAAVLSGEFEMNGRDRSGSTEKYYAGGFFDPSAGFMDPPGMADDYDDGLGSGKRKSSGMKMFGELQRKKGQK

[6] = target: T6, full-length ICR1, Gateway (pDEST22/pDEST32) two-hybrid fusion (Arabidopsis) (UniProt Q8LE98); experiment: as above
T6 sequence: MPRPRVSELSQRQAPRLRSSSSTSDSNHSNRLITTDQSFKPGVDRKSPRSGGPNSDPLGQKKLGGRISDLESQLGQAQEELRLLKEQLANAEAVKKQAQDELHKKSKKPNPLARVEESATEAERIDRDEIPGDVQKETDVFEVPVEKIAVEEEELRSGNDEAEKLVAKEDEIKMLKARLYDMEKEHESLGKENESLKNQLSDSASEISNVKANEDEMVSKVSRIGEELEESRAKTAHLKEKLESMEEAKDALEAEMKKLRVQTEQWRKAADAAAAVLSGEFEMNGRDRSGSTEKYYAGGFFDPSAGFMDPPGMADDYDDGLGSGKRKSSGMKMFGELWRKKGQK

[7] = target: T7, ICR1W266A, two-hybrid fusion (Arabidopsis) (UniProt Q8LE98); experiment: as above
T7 sequence: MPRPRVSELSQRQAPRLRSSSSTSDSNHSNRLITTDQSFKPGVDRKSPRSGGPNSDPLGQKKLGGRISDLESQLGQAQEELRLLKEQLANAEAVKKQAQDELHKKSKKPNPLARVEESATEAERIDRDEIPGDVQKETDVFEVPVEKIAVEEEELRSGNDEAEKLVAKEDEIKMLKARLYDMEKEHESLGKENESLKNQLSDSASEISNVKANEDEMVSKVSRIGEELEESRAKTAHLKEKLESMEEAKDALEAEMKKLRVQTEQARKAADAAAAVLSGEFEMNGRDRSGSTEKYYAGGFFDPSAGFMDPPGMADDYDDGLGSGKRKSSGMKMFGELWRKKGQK

[8] = target: T8, ICR4, pGBT-ICR4 two-hybrid fusion (Arabidopsis) (UniProt Q9M9F9); experiment: two-hybrid; Gal4 system, pGAD-CMI1 or pGAD-cmi1D85N cotransformed with pGBT-ICR1/ICR2/ICR4; S. cerevisiae Y190 and PJ69-4a; growth without Leu, Trp, His with 50 mM 3-AT; beta-galactosidase assays
T8 sequence: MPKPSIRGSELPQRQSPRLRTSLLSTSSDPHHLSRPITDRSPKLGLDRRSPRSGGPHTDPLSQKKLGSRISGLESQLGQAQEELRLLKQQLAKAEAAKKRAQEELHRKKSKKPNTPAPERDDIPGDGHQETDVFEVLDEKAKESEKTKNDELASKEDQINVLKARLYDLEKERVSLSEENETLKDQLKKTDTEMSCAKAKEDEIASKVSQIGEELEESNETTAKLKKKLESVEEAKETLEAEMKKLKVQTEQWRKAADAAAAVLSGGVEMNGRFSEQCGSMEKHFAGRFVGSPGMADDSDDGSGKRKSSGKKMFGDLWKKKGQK

[9] = target: T9, interactor of constitutively active ROP (ICR1), pGBT-ICR1 two-hybrid fusion (Arabidopsis) (UniProt Q8LE98); experiment: as above
T9 sequence: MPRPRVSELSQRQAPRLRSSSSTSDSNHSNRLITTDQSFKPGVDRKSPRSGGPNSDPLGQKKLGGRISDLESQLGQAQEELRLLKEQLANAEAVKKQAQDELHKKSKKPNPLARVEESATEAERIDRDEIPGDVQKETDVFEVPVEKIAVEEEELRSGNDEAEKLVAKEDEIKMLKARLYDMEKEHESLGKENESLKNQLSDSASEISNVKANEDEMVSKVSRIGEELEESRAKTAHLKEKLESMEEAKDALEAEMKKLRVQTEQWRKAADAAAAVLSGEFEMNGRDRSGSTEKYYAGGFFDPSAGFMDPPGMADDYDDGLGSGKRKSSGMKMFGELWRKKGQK

[10] = target: T10, ICR2, pGBT-ICR2 two-hybrid fusion (Arabidopsis) (UniProt Q9ZQC5); experiment: as above
T10 sequence: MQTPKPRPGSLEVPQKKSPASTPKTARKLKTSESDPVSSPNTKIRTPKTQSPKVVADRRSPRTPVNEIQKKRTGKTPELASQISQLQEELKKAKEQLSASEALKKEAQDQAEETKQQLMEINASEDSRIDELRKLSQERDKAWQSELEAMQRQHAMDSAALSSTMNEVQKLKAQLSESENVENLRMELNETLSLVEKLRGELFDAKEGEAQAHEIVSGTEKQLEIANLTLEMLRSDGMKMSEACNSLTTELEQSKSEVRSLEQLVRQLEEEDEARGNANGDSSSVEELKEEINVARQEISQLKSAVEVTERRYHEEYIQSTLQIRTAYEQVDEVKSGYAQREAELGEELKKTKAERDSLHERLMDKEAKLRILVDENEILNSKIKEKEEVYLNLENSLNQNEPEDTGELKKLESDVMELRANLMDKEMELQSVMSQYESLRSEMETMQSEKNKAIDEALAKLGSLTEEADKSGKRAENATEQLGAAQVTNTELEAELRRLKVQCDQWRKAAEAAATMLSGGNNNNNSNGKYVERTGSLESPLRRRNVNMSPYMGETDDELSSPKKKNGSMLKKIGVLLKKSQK

[11] = target: T11, GST-ICR1 (Arabidopsis, UniProt Q8LE98 1-344); experiment: pull-down; as a3 but with 10 mM EGTA in place of 5 mM CaCl2 in reaction and wash buffers; both purified
T11 construct: ICR1, Arabidopsis; also called glutathione S-transferase (GST)-ICR1; source: E. coli Rosetta (DE3), purified (Glutathione sepharose)
T11 sequence (looked up): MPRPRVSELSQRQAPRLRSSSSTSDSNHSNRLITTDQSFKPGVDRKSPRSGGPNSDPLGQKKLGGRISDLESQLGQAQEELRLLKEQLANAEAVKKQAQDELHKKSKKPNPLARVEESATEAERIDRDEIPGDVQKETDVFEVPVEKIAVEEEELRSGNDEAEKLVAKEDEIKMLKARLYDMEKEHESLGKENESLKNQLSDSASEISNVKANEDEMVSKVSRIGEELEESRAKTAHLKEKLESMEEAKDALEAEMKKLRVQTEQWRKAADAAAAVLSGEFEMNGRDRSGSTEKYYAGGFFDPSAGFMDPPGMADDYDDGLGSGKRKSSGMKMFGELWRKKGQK

[12] = target: T12, ICR1, LexA two-hybrid fusion (Arabidopsis) (UniProt Q8LE98); experiment: two-hybrid; Clontech LexA system, yeast strain EGY48, X-Gal assays read after 24 and 48 hours
T12 sequence: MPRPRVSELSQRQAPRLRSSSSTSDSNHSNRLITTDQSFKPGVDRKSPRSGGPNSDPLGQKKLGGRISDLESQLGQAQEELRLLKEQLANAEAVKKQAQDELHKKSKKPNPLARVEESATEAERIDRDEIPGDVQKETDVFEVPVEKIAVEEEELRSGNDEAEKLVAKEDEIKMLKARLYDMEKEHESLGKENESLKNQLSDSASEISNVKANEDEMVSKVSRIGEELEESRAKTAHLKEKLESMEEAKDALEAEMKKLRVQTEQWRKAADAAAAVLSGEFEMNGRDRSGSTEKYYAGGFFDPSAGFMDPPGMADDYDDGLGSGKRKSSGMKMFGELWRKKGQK

- binding [1]: binds
- binding [2]: no binding
- binding [3]: binds
- binding [4]: binds
- binding [5]: no binding
- binding [6]: binds
- binding [7]: binds
B1: CMI1, Gateway (pDEST22/pDEST32) two-hybrid fusion (protein, UniProt O81831 1-130)
chain: MASPKSPTRPTQQNPQPNFHDFLPTMAGNLGGEGLIGELCNGFELLMDREKGVITFESLRRNAAAVLGLGDLTDEDVRCMIKEGDFDCDGALNQMEFCVLMFRLSPDLMEASRCLVTEVIEEEFGFTRRH

- binding [8]: no binding
- binding [9]: binds
- binding [10]: no binding
B2: Ca2+-dependent modulator of ICR1 (CMI1), pGAD-CMI1 two-hybrid fusion (protein, UniProt O81831 1-130)
chain: MASPKSPTRPTQQNPQPNFHDFLPTMAGNLGGEGLIGELCNGFELLMDREKGVITFESLRRNAAAVLGLGDLTDEDVRCMIKEGDFDCDGALNQMEFCVLMFRLSPDLMEASRCLVTEVIEEEFGFTRRH

- binding [6]: no binding
B3: cmi1 L92A, Gateway two-hybrid fusion (protein, UniProt O81831 1-130)
chain: MASPKSPTRPTQQNPQPNFHDFLPTMAGNLGGEGLIGELCNGFELLMDREKGVITFESLRRNAAAVLGLGDLTDEDVRCMIKEGDFDCDGAANQMEFCVLMFRLSPDLMEASRCLVTEVIEEEFGFTRRH

B4: His6-CMI1 (natural protein, Arabidopsis, UniProt O81831 1-130, looked up)
chain: MASPKSPTRPTQQNPQPNFHDFLPTMAGNLGGEGLIGELCNGFELLMDREKGVITFESLRRNAAAVLGLGDLTDEDVRCMIKEGDFDCDGALNQMEFCVLMFRLSPDLMEASRCLVTEVIEEEFGFTRRH
notes: CMI1, Arabidopsis, At4g27280; also called His-CMI1; source: E. coli Rosetta (DE3), purified (Ni-NTA)
- binding [11]: no binding (condition: Ca2+ chelated with 10 mM EGTA)

- binding [6]: no binding
B5: cmi1 L59A, Gateway two-hybrid fusion (protein, UniProt O81831 1-130)
chain: MASPKSPTRPTQQNPQPNFHDFLPTMAGNLGGEGLIGELCNGFELLMDREKGVITFESARRNAAAVLGLGDLTDEDVRCMIKEGDFDCDGALNQMEFCVLMFRLSPDLMEASRCLVTEVIEEEFGFTRRH

- binding [12]: binds
B6: CMI1, LexA two-hybrid fusions (CMI1-LexA-BD and CMI1-Lex-AD) (protein, UniProt O81831 1-130)
chain: MASPKSPTRPTQQNPQPNFHDFLPTMAGNLGGEGLIGELCNGFELLMDREKGVITFESLRRNAAAVLGLGDLTDEDVRCMIKEGDFDCDGALNQMEFCVLMFRLSPDLMEASRCLVTEVIEEEFGFTRRH

- binding [6]: no binding
B7: cmi1 L100A, Gateway two-hybrid fusion (protein, UniProt O81831 1-130)
chain: MASPKSPTRPTQQNPQPNFHDFLPTMAGNLGGEGLIGELCNGFELLMDREKGVITFESLRRNAAAVLGLGDLTDEDVRCMIKEGDFDCDGALNQMEFCVAMFRLSPDLMEASRCLVTEVIEEEFGFTRRH

- binding [9]: no binding
B8: cmi1D85N, pGAD-cmi1D85N two-hybrid fusion (protein, UniProt O81831 1-130)
chain: MASPKSPTRPTQQNPQPNFHDFLPTMAGNLGGEGLIGELCNGFELLMDREKGVITFESLRRNAAAVLGLGDLTDEDVRCMIKEGNFDCDGALNQMEFCVLMFRLSPDLMEASRCLVTEVIEEEFGFTRRH

Reference: publication PMC6650080, “A novel Ca2+-binding protein that can rapidly transduce auxin responses during root growth” (PLoS Biology, 2019)
